Measured values from the antibiotic and cytotoxicity screens of Wong et al. (2023).
The other results are listed elsewhere or left out.

Assays:
HSkMC = human skeletal muscle cells; experiment: cytotoxicity call (relative viability < 0.9); conditions: 10 µM
HepG2 = experiment: cytotoxicity call (relative viability < 0.9); conditions: 10 µM
S. aureus RN4220 = experiment: growth inhibition call (relative growth <= 0.2); conditions: 50 µM

Structure (SMILES) | cytotoxicity call (HSkMC) | cytotoxicity call (HepG2) | growth inhibition call (S. aureus RN4220)
C[C@@H]1CCCCO[C@@H](CN(C)S(=O)(=O)c2ccc(F)cc2)[C@H](C)CN([C@H](C)CO)C(=O)c2cc(NC(=O)CCC(F)(F)F)ccc2O1 | inactive | inactive | inactive
C[C@]1(C(=O)NCc2ccccc2)c2ccccc2C(=O)N(Cc2ccccc2)[C@H]1c1ccc(COC(=O)NCCCCCC(=O)NO)cc1 | inactive | inactive | inactive
O=C(C[C@H]1CC[C@@H](NS(=O)(=O)c2ccc(F)cc2)[C@H](CO)O1)NCc1ccc(Cl)c(Cl)c1 | inactive | inactive | inactive
O=C(C[C@H]1C[C@@H]2c3cc(NS(=O)(=O)c4ccc(F)cc4)ccc3O[C@@H]2[C@H](CO)O1)NCc1ccccc1F | inactive | inactive | inactive
Cn1c(N2CCOCC2)nc2c1c(=O)[nH]c(=O)n2C | inactive | inactive | inactive
C[C@H](CO)N1C[C@H](C)[C@@H](CN(C)Cc2ccc(-c3ccccc3)cc2)Oc2c(NS(=O)(=O)c3ccc(Cl)cc3)cccc2C1=O | inactive | inactive | inactive
C[C@@H]1CCCCO[C@H](CN(C)Cc2ccc(C(=O)Nc3ccccc3N)cc2)[C@@H](C)CN([C@H](C)CO)C(=O)c2cc(NS(=O)(=O)c3ccc(F)cc3)ccc2O1 | inactive | inactive | inactive
O=C(C[C@H]1CC[C@H]2[C@@H](COC[C@H](O)CN2C(=O)Nc2ccc(F)cc2)O1)NCCCN1CCOCC1 | inactive | inactive | inactive
COc1ccc(NC(=O)N(C)C[C@@H]2Oc3ccc(NS(=O)(=O)c4cn(C)cn4)cc3C(=O)N([C@@H](C)CO)C[C@H]2C)cc1 | inactive | inactive | inactive
C[C@H](CO)N1C[C@H](C)[C@@H](CN(C)S(C)(=O)=O)Oc2ccc(NS(=O)(=O)c3ccc(Cl)cc3)cc2C1=O | inactive | inactive | inactive
CS(=O)(=O)Nc1ccc2c(c1)[C@H]1C[C@H](CC(=O)NCC3CC3)O[C@H](CO)[C@H]1O2 | inactive | inactive | inactive
CO[C@H]1CN(C)C(=O)c2ccc(NC(=O)C3CCOCC3)cc2OC[C@@H](C)N(Cc2cccnc2)C[C@H]1C | inactive | inactive | inactive
C[C@@H]1CN([C@@H](C)CO)C(=O)c2cccc(NC(=O)Nc3ccc(C(F)(F)F)cc3)c2O[C@H]1CN(C)C(=O)Nc1ccc(F)cc1 | inactive | inactive | active
C[C@H](CO)N1C[C@H](C)[C@H](CN(C)C(=O)Nc2ccc(C(F)(F)F)cc2)OCCCC[C@H](C)Oc2ccc(NS(=O)(=O)c3ccc(F)cc3)cc2C1=O | inactive | inactive | inactive
Cc1ccc(S(=O)(=O)Nc2ccc3c(c2)C(=O)N([C@H](C)CO)C[C@H](C)[C@@H](CN(C)C(=O)Cc2ccccc2)OCCCC[C@@H](C)O3)cc1 | inactive | inactive | inactive
C[C@@H]1CCCCO[C@@H](CN(C)Cc2ccc(C(F)(F)F)cc2)[C@@H](C)CN([C@H](C)CO)C(=O)c2cc(NC(=O)Nc3ccccc3)ccc2O1 | inactive | inactive | inactive
C[C@@H]1CCCCO[C@H](CN(C)C)[C@@H](C)CN([C@H](C)CO)C(=O)c2cc(NC(=O)CCCN(C)C)ccc2O1 | inactive | inactive | inactive
C[C@H](CO)N1C[C@H](C)[C@@H](CN(C)Cc2ccc(Oc3ccccc3)cc2)Oc2ncc(-c3cccnc3)cc2C1=O | inactive | inactive | inactive
Cc1noc(C)c1S(=O)(=O)Nc1ccc2c(c1)C(=O)N([C@@H](C)CO)C[C@@H](C)[C@@H](CN(C)CC1CCCCC1)OCCCC[C@H](C)O2 | inactive | inactive | inactive
O=C(C[C@@H]1CC=CC[C@H](NC(=O)OCC2c3ccccc3-c3ccccc32)C(=O)OC[C@@H](Cc2c[nH]c3ccccc23)NC1=O)N[C@@H](CO)Cc1ccccc1 | inactive | inactive | inactive
CNC(=NCc1ccc(OC)cc1)NC | inactive | inactive | inactive
COc1cc2c(cc1OC)CN(C(=O)[C@@H]1[C@H]3C(=O)O[C@H](c4ccccc4)[C@H](c4ccccc4)N3[C@H](c3ccc(O)cc3)[C@@]13C(=O)Nc1ccc(C#CCCO)cc13)CC2 | inactive | inactive | inactive
Cc1ccc(/C=N/N(C)C2=NCCN2)o1 | inactive | inactive | inactive
O=c1[nH]cc(N2CCCCC2)c(=O)[nH]1 | inactive | inactive | inactive
C[C@@H]1CN([C@H](C)CO)C(=O)c2cccc(NC(=O)Nc3ccc(F)cc3)c2O[C@@H]1CN(C)C(=O)Nc1ccc(C(F)(F)F)cc1 | inactive | inactive | inactive
COc1ccc(CN(C)C[C@@H]2OCCCC[C@@H](C)Oc3ccc(NC(=O)Cc4ccccc4)cc3C(=O)N([C@@H](C)CO)C[C@@H]2C)cc1 | inactive | inactive | inactive
C[C@@H]1CCCCO[C@@H](CN(C)C(=O)Nc2ccc(C(F)(F)F)cc2)[C@@H](C)CN([C@H](C)CO)C(=O)c2cc(NC(=O)CCC(F)(F)F)ccc2O1 | inactive | inactive | inactive

Structure (SMILES) | cytotoxicity call (HSkMC) | cytotoxicity call (HepG2) | growth inhibition call (S. aureus RN4220)
C[C@@H]1CN([C@H](C)CO)C(=O)Cc2cc(NC(=O)Nc3ccc(F)cc3)ccc2O[C@H]1CN(C)Cc1ccc(-c2ccccc2)cc1 | active | active | inactive
CCCN(CCC)[NH2+][O-] | inactive | inactive | inactive
C[C@H]1CN([C@@H](C)CO)C(=O)Cc2cc(NC(=O)c3ccncc3)ccc2O[C@H]1CN(C)S(=O)(=O)c1ccccc1 | inactive | inactive | inactive
C[C@H](CO)N1C[C@H](C)[C@H](CN(C)S(=O)(=O)c2ccc(Cl)cc2)OCCCC[C@H](C)Oc2ccc(NC(=O)Nc3ccc4c(c3)OCO4)cc2C1=O | inactive | inactive | inactive
CC(C)NC(=O)Nc1ccc2c(c1)CC(=O)N([C@H](C)CO)C[C@H](C)[C@@H](CN(C)Cc1ccc3c(c1)OCO3)O2 | inactive | inactive | inactive
Cc1ccc(S(=O)(=O)N(C)C[C@@H]2Oc3c(NS(=O)(=O)c4ccccc4)cccc3C(=O)N([C@@H](C)CO)C[C@H]2C)cc1 | inactive | inactive | inactive
C[C@H]1CCCCO[C@H](CN(C)S(=O)(=O)c2ccc(Cl)cc2)[C@@H](C)CN([C@@H](C)CO)C(=O)c2cc(NC(=O)CCC(F)(F)F)ccc2O1 | inactive | active | inactive
Cc1ccc(S(=O)(=O)Nc2ccc3c(c2)CC(=O)N([C@@H](C)CO)C[C@H](C)[C@@H](CN(C)S(=O)(=O)c2cn(C)cn2)O3)cc1 | inactive | inactive | inactive
COCC#Cc1cnc2c(c1)C(=O)N([C@H](C)CO)C[C@H](C)[C@H](CN(C)S(=O)(=O)c1cccc(OC)c1)O2 | inactive | inactive | inactive
C[C@H](CO)N1C[C@H](C)[C@@H](CN(C)C(=O)Nc2ccc(F)cc2)OCCCC[C@H](C)Oc2ccc(NS(=O)(=O)c3ccc(F)cc3)cc2C1=O | inactive | inactive | inactive
CCc1ccc(NC(=O)Cc2coc3ccc(C(C)C)cc23)cc1 | inactive | inactive | inactive
CC(C)CC#Cc1cnc2c(c1)C(=O)N([C@@H](C)CO)C[C@H](C)[C@@H](CN(C)C(=O)CCN1CCCCC1)O2 | inactive | inactive | inactive
Cc1ccc(S(=O)(=O)Nc2ccc3c(c2)C(=O)N([C@H](C)CO)C[C@H](C)[C@@H](CN(C)C(=O)Nc2ccc(C(F)(F)F)cc2)OCCCC[C@@H](C)O3)cc1 | inactive | inactive | inactive
Nc1nc2ncc(=O)[nH]c2c(=O)[nH]1 | inactive | inactive | inactive
O=C([C@H]1[C@H](CO)[C@H]2Cn3c(cccc3=O)[C@H]2N1CC1CCCC1)N1CCOCC1 | inactive | inactive | inactive
CCCN(C)C[C@H]1OCCCC[C@@H](C)Oc2ccc(NC(=O)Nc3ccc(C(F)(F)F)cc3)cc2C(=O)N([C@@H](C)CO)C[C@H]1C | inactive | active | inactive
CC(C)(C)S(=O)N1Cc2cc(C(=O)Nc3ccc(-c4ccccc4)cc3)nc(-c3cccc(-c4cccc(F)c4)c3)c2[C@@H]1CCO (some centres not stated) | active | active | inactive
O=C1OCC=C[C@H]2O[C@@]34C=CCN(c5ccc6ccccc6c5)C(=O)[C@H]3N(CCCCCO)C(=O)[C@@H]4[C@@H]12 | inactive | inactive | inactive
C[C@@H]1CN([C@@H](C)CO)C(=O)c2cc(C#CCC3CCCC3)cnc2O[C@@H]1CN(C)C(=O)c1cnccn1 | inactive | inactive | inactive
Cc1ccccc1NC(=O)C[C@H]1NCCNC1=O | inactive | inactive | inactive
C[C@H](CO)N1C[C@H](C)[C@H](CN(C)Cc2ccc(Oc3ccccc3)cc2)Oc2ccc(NC(=O)Nc3ccc(F)cc3)cc2CC1=O | inactive | active | inactive
C[C@@H]1CCCCO[C@H](CN(C)Cc2ccc(Cl)c(Cl)c2)[C@@H](C)CN([C@H](C)CO)C(=O)c2cc(NS(=O)(=O)c3ccccc3)ccc2O1 | inactive | inactive | inactive
Cc1ccc(S(=O)(=O)Nc2ccc3c(c2)CC(=O)N([C@H](C)CO)C[C@H](C)[C@@H](CN(C)C(=O)Nc2cccc4ccccc24)O3)cc1 | inactive | inactive | inactive
Cc1ccc(/C=N/c2ccccc2Sc2c(C)n[nH]c2C)cc1 | inactive | inactive | inactive
C[C@H]1CN([C@@H](C)CO)S(=O)(=O)c2ccc(-c3cccc(F)c3)cc2O[C@@H]1CN(C)S(C)(=O)=O | inactive | inactive | inactive
COc1ccc2c3c(n(c2c1)C)[C@@H](CO)N(C[C@]13CCN(CC1)C(=O)C1CC1)C(=O)CN1CCOCC1 | inactive | inactive | inactive
COc1cc(OC)c2c(=O)cc(-c3ccccc3)oc2c1 | inactive | inactive | inactive
